Structures can show the parent of a compound that is named as a salt. This is one part of the list. Repeats are few or missing, and single values can be far off.
Assays:
[1] = test system: KB-3-1; test: growth inhibition relative to DMSO control (SRB); cervical cancer cells: KB-3-1 is the parent and KB-V1 overexpresses MDR1; SRB is the sulforhodamine B stain; higher = more growth inhibition; conditions: 1 µM; 72 h
[2] = test system: KB-V1; test: as above; conditions: 1 µM; 72 h
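Note: Read-out is SRB optical density at 490 nm, with the control being wells given 0.5% DMSO vehicle, and compound added one day after cells were plated.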

SMILES	growth inhibition [1] [%]	growth inhibition [2] [%]
C[C@H]1c2cccc(O)c2C(=O)C2=C(O)[C@]3(O)C(=O)C(C(N)=O)=C(O)[C@@H](N(C)C)[C@@H]3[C@@H](O)[C@@H]21 [Doxycycline HCl]	< 0	< 0
COc1ccc2c(c1)c(CC(=O)N1CCOCC1)c(C)n2C(=O)c1ccc(Cl)cc1	10.3	10.8
Cc1c(OCC(F)(F)F)ccnc1C[S+]([O-])c1nc2ccccc2[nH]1 (stereo unspecified) [Lansoprazole]	9.61	31.2
CNCC[C@@H](Oc1ccccc1C)c1ccccc1 [Atomoxetine HCl]	< 0	4.8
O=C(O)Cc1ccccc1Nc1c(Cl)cccc1Cl [Diclofenac Sodium]	44.6	20.3
CCc1nc(N)nc(N)c1-c1ccc(Cl)cc1 [Pyrimethamine]	38.5	16.2
Oc1ccc(-c2nc(-c3ccc(F)cc3)c(-c3ccncc3)[nH]2)cc1	15.6	17.8
CC1=C(C(=O)OC(C)C)C(c2cccc([N+](=O)[O-])c2)C(C(=O)OC2CN(C(c3ccccc3)c3ccccc3)C2)=C(N)N1 (stereo unspecified) [Azelnidipine]	< 0	34.2
O=C(/C=C\n1cnc(-c2cc(C(F)(F)F)cc(C(F)(F)F)c2)n1)N1CC(F)(F)C1	71.2	73.2
CS(=O)(=O)CCNCc1ccc(-c2ccc3ncnc(Nc4ccc(OCc5cccc(F)c5)c(Cl)c4)c3c2)o1	76.9	49.4
CCn1cc(-c2ccnc3[nH]c(-c4cccc(CN(C)C)c4)cc23)c(-c2ccc(NC(=O)N(C)C)cc2)n1	< 0	67.3
Cn1cnc2c(F)c(Nc3ccc(Br)cc3F)c(C(=O)NOCCO)cc21	11	3.19
CCc1cnn2c(NCc3ccc[n+]([O-])c3)cc(N3CCCC[C@H]3CCO)nc12	85.2	93.3
Cc1c(CN2CCN(C(=O)[C@H](C)O)CC2)sc2c(N3CCOCC3)nc(-c3cnc(N)nc3)nc12	85.2	80.7
CN(C)CC(=O)Nc1ccc2[nH]c(=O)c3ccccc3c2c1	25.1	24.1
Cn1c(=O)c2c(ncn2CC(O)CO)n(C)c1=O (stereo unspecified) [Dyphylline]	32.4	17.8
OC[C@H]1O[C@@H](c2ccc(Cl)c(Cc3ccc(O[C@H]4CCOC4)cc3)c2)[C@H](O)[C@@H](O)[C@@H]1O	50	5.56
COCCCN1CCC(NC(=O)c2cc(Cl)c(N)c3c2OCC3)CC1 [Prucalopride]	2.38	11.9
CNC(=O)c1cc(Oc2ccc(NC(=O)Nc3cc(C(C)(C)C)nn3-c3ccc4ncccc4c3)c(F)c2)ccn1 [DCC-2036 (Rebastinib)]	< 0	3.12
COc1cc2nc(N3CCN(C(=O)C4COc5ccccc5O4)CC3)nc(N)c2cc1OC (stereo unspecified) [Doxazosin Mesylate]	14.2	45.5
CC(C)NCC(O)COc1ccc(COCCOC(C)C)cc1 (stereo unspecified) [Bisoprolol fumarate]	44.9	34.9
CC(C)(C)c1nc(-c2cccc(NS(=O)(=O)c3c(F)cccc3F)c2F)c(-c2ccnc(N)n2)s1	65.9	19.5
COc1ccc(CCc2nc3cc(-c4c(C)noc4C)ccc3n2C[C@H](C)N2CCOCC2)cc1Cl	20.6	18.8
Cc1cc(C2CCCCC2)n(O)c(=O)c1 [Ciclopirox ethanolamine]	22.7	27.6

SMILES	growth inhibition [1] [%]	growth inhibition [2] [%]
CN(C)CCC(c1ccc(Br)cc1)c1ccccn1 (stereo unspecified) [Brompheniramine hydrogen maleate]	28.7	10.6
Cc1cc(Cn2cnc3c2CC(C(=O)O)N(C(=O)C(c2ccccc2)c2ccccc2)C3)ccc1N(C)C (stereo unspecified)	25.5	3.67
CC(C)(C)C(=O)OCOP(=O)(COCCn1cnc2c(N)ncnc21)OCOC(=O)C(C)(C)C [Adefovir Dipivoxil]	53.4	24.5
CCOC(=O)[C@H](CCc1ccccc1)N[C@H]1CCCN2CCC[C@@H](C(=O)O)N2C1=O [Cilazapril Monohydrate]	19.1	19.1
CC(C)CCN1c2nc(Nc3cc(F)c(O)c(F)c3)ncc2N(C)C(=O)C1C (stereo unspecified)	4.84	13.9
CCCCc1nc2cc(/C=C/C(=O)NO)ccc2n1CCN(CC)CC [Pracinostat (SB939)]	87.5	80
C/C(=N\NC(=S)N1CCC1)c1ccccn1	90.9	87.2
CNCc1ccc(-c2[nH]c3cc(F)cc4c3c2CCNC4=O)cc1	39.3	36
CCn1c(-c2nonc2N)nc2c(C#CC(C)(C)O)ncc(OC[C@H]3CCCNC3)c21	53.4	38.9
CNC(=O)[C@H](Cc1ccccc1)NC(=O)[C@H](CC(C)C)[C@H](CSc1cccs1)C(=O)NO [Batimastat (BB-94)]	11.1	< 0
COc1cc(Nc2c(C#N)cnc3cc(OCCCN4CCN(C)CC4)c(OC)cc23)c(Cl)cc1Cl [Bosutinib (SKI-606)]	38.9	5.19
CCC1=C(C)CN(C(=O)NCCc2ccc(S(=O)(=O)NC(=O)N[C@H]3CC[C@H](C)CC3)cc2)C1=O [Glimepiride]	19.6	35.8
C#Cc1cccc(Nc2ncnc3cc(OCCOC)c(OCCO)cc23)c1	< 0	32.7
OCc1ccc(-c2ccc(-c3ccc(CO)s3)o2)s1	63.7	68.9
O=C(NCCS(=O)(=O)c1ccc(C(F)(F)F)cn1)c1ccc(Cl)cc1	40.2	5.56
CC(C)C[C@H](NC(=O)[C@H](Cc1ccccc1)NC(=O)c1cnccn1)B(O)O [Bortezomib (PS-341)]	22.9	< 0
CC(C)OC(=O)OCOP(=O)(CO[C@H](C)Cn1cnc2c(N)ncnc21)OCOC(=O)OC(C)C [Tenofovir Disoproxil Fumarate]	16.9	30.5
COc1ccc(-c2ccc3c(N4CCOC[C@@H]4C)nc(N4CCOC[C@@H]4C)nc3n2)cc1CO	90.6	84
CCOc1cc2ncc(C#N)c(Nc3ccc(OCc4ccccn4)c(Cl)c3)c2cc1NC(=O)/C=C/CN(C)C [Neratinib (HKI-272)]	61.1	43.9
Fc1ccc(C(c2ccc(F)cc2)N2CCN(C/C=C/c3ccccc3)CC2)cc1 [Flunarizine 2HCl]	45.1	15.4
CNC[C@H](O)c1ccc(O)c(O)c1 [Epinephrine HCl]	< 0	4.47
Cc1ccc(C(=O)N(CCCN)[C@@H](c2nc3cc(Cl)ccc3c(=O)n2Cc2ccccc2)C(C)C)cc1	98.7	93.7
O=C1NC(=O)C(=Cc2ccc(-c3ccc(F)cc3)o2)S1 (stereo in doubt)	< 0	< 0
CC(C)(C)NC[C@H](O)COc1nsnc1N1CCOCC1 [Timolol Maleate]	32.8	22.9
